Laboratory results as given in the supplement of paper PMC11876631.
± gives the standard deviation of the averaged measurements. Laboratory Escherichia coli strains with one amino-acid change in an essential protein, pooled on minimal glucose agar with carbenicillin or gentamicin at twice the control MIC (plus kanamycin and chloramphenicol for the plasmids), 48 h. Fold change of barcode share against drug-free plates; higher = less susceptible. Active = above 20 in both replicates (the paper's putatively resistant). '<' = one read or none on drug, '>' = one read or none on a drug-free plate. Shares are relative, so most strains fall below 1 when a few take over. Listed are strains with at least 15 reads on both drug-free plates, and hits; most hits rest on fewer reference reads. Replicate rank correlation about 0.5. Edits are read from barcodes.

Target: Escherichia coli (laboratory strain)
Test: barcode share on antibiotic plates over drug-free plates; higher = less susceptible
Protocol: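 A pool of E. coli strains, each edited to carry one amino-acid change in an essential protein, was grown for 48 h on minimal glucose agar with or without antibiotic; strain barcodes were sequenced; mean of two replicates.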

[1] = antibiotic: carbenicillin, 2× MIC (3.1 µg/mL)
[2] = antibiotic: gentamicin, 2× MIC (MIC 0.45 µg/mL)

B1: mraY M78Q (protein)
chain: MLVWLAEHLVKYYSGFNVFSYLTFRAIVSLLTALFISLWMGPRMIAHLQKLSFGQVVRNDGPESHFSKRGTPTMGGIQILTAIVISVLLWAYPSNPYVWCVLVVLVGYGVIGFVDDYRKVVRKDTKGLIARWKYFWMSVIALGVAFALYLAGKDTPATQLVVPFFKDVMPQLGLFYILLAYFVIVGTGNAVNLTDGLDGLAIMPTVFVAGGFALVAWATGNMNFASYLHIPYLRHAGELVIVCTAIVGAGLGFLWFNTYPAQVFMGDVGSLALGGALGIIAVLLRQEFLLVIMGGVFVVETLSVILQVGSFKLRGQRIFRMAPIHHHYELKGWPEPRVIVRFWIISLMLVLIGLATLKVR
fold change of barcode share [1]: 0.23 ± 0.038 | fold change of barcode share [2]: 0.0952 ± 0.12

B2: mraY I184Q (protein)
chain: MLVWLAEHLVKYYSGFNVFSYLTFRAIVSLLTALFISLWMGPRMIAHLQKLSFGQVVRNDGPESHFSKRGTPTMGGIMILTAIVISVLLWAYPSNPYVWCVLVVLVGYGVIGFVDDYRKVVRKDTKGLIARWKYFWMSVIALGVAFALYLAGKDTPATQLVVPFFKDVMPQLGLFYILLAYFVQVGTGNAVNLTDGLDGLAIMPTVFVAGGFALVAWATGNMNFASYLHIPYLRHAGELVIVCTAIVGAGLGFLWFNTYPAQVFMGDVGSLALGGALGIIAVLLRQEFLLVIMGGVFVVETLSVILQVGSFKLRGQRIFRMAPIHHHYELKGWPEPRVIVRFWIISLMLVLIGLATLKVR
fold change of barcode share [1]: 0.216 ± 0.067 | fold change of barcode share [2]: 0.00985 ± 0.011

B3: mraY I79Q (protein)
chain: MLVWLAEHLVKYYSGFNVFSYLTFRAIVSLLTALFISLWMGPRMIAHLQKLSFGQVVRNDGPESHFSKRGTPTMGGIMQLTAIVISVLLWAYPSNPYVWCVLVVLVGYGVIGFVDDYRKVVRKDTKGLIARWKYFWMSVIALGVAFALYLAGKDTPATQLVVPFFKDVMPQLGLFYILLAYFVIVGTGNAVNLTDGLDGLAIMPTVFVAGGFALVAWATGNMNFASYLHIPYLRHAGELVIVCTAIVGAGLGFLWFNTYPAQVFMGDVGSLALGGALGIIAVLLRQEFLLVIMGGVFVVETLSVILQVGSFKLRGQRIFRMAPIHHHYELKGWPEPRVIVRFWIISLMLVLIGLATLKVR
fold change of barcode share [1]: 0.204 ± 0.049 | fold change of barcode share [2]: < 0.00639

B4: mraY V87A (protein)
chain: MLVWLAEHLVKYYSGFNVFSYLTFRAIVSLLTALFISLWMGPRMIAHLQKLSFGQVVRNDGPESHFSKRGTPTMGGIMILTAIVISALLWAYPSNPYVWCVLVVLVGYGVIGFVDDYRKVVRKDTKGLIARWKYFWMSVIALGVAFALYLAGKDTPATQLVVPFFKDVMPQLGLFYILLAYFVIVGTGNAVNLTDGLDGLAIMPTVFVAGGFALVAWATGNMNFASYLHIPYLRHAGELVIVCTAIVGAGLGFLWFNTYPAQVFMGDVGSLALGGALGIIAVLLRQEFLLVIMGGVFVVETLSVILQVGSFKLRGQRIFRMAPIHHHYELKGWPEPRVIVRFWIISLMLVLIGLATLKVR
fold change of barcode share [1]: 0.471 ± 0.22 | fold change of barcode share [2]: 0.00412 ± 0.0019

B5: mraY V162Q (protein)
chain: MLVWLAEHLVKYYSGFNVFSYLTFRAIVSLLTALFISLWMGPRMIAHLQKLSFGQVVRNDGPESHFSKRGTPTMGGIMILTAIVISVLLWAYPSNPYVWCVLVVLVGYGVIGFVDDYRKVVRKDTKGLIARWKYFWMSVIALGVAFALYLAGKDTPATQLVQPFFKDVMPQLGLFYILLAYFVIVGTGNAVNLTDGLDGLAIMPTVFVAGGFALVAWATGNMNFASYLHIPYLRHAGELVIVCTAIVGAGLGFLWFNTYPAQVFMGDVGSLALGGALGIIAVLLRQEFLLVIMGGVFVVETLSVILQVGSFKLRGQRIFRMAPIHHHYELKGWPEPRVIVRFWIISLMLVLIGLATLKVR
fold change of barcode share [1]: 0.377 ± 0.13 | fold change of barcode share [2]: 0.038 ± 0.032

B6: mraY M78D (protein)
chain: MLVWLAEHLVKYYSGFNVFSYLTFRAIVSLLTALFISLWMGPRMIAHLQKLSFGQVVRNDGPESHFSKRGTPTMGGIDILTAIVISVLLWAYPSNPYVWCVLVVLVGYGVIGFVDDYRKVVRKDTKGLIARWKYFWMSVIALGVAFALYLAGKDTPATQLVVPFFKDVMPQLGLFYILLAYFVIVGTGNAVNLTDGLDGLAIMPTVFVAGGFALVAWATGNMNFASYLHIPYLRHAGELVIVCTAIVGAGLGFLWFNTYPAQVFMGDVGSLALGGALGIIAVLLRQEFLLVIMGGVFVVETLSVILQVGSFKLRGQRIFRMAPIHHHYELKGWPEPRVIVRFWIISLMLVLIGLATLKVR
fold change of barcode share [1]: 1.2 ± 1.4 | fold change of barcode share [2]: < 0.0195

B7: mraY V162P (protein)
chain: MLVWLAEHLVKYYSGFNVFSYLTFRAIVSLLTALFISLWMGPRMIAHLQKLSFGQVVRNDGPESHFSKRGTPTMGGIMILTAIVISVLLWAYPSNPYVWCVLVVLVGYGVIGFVDDYRKVVRKDTKGLIARWKYFWMSVIALGVAFALYLAGKDTPATQLVPPFFKDVMPQLGLFYILLAYFVIVGTGNAVNLTDGLDGLAIMPTVFVAGGFALVAWATGNMNFASYLHIPYLRHAGELVIVCTAIVGAGLGFLWFNTYPAQVFMGDVGSLALGGALGIIAVLLRQEFLLVIMGGVFVVETLSVILQVGSFKLRGQRIFRMAPIHHHYELKGWPEPRVIVRFWIISLMLVLIGLATLKVR
fold change of barcode share [1]: 0.166 ± 0.021 | fold change of barcode share [2]: 0.0391 ± 0.046

B8: mraY V87Q (protein)
chain: MLVWLAEHLVKYYSGFNVFSYLTFRAIVSLLTALFISLWMGPRMIAHLQKLSFGQVVRNDGPESHFSKRGTPTMGGIMILTAIVISQLLWAYPSNPYVWCVLVVLVGYGVIGFVDDYRKVVRKDTKGLIARWKYFWMSVIALGVAFALYLAGKDTPATQLVVPFFKDVMPQLGLFYILLAYFVIVGTGNAVNLTDGLDGLAIMPTVFVAGGFALVAWATGNMNFASYLHIPYLRHAGELVIVCTAIVGAGLGFLWFNTYPAQVFMGDVGSLALGGALGIIAVLLRQEFLLVIMGGVFVVETLSVILQVGSFKLRGQRIFRMAPIHHHYELKGWPEPRVIVRFWIISLMLVLIGLATLKVR
fold change of barcode share [1]: 0.298 ± 0.18 | fold change of barcode share [2]: 0.0113 ± 0.0046

B9: mraY V87D (protein)
chain: MLVWLAEHLVKYYSGFNVFSYLTFRAIVSLLTALFISLWMGPRMIAHLQKLSFGQVVRNDGPESHFSKRGTPTMGGIMILTAIVISDLLWAYPSNPYVWCVLVVLVGYGVIGFVDDYRKVVRKDTKGLIARWKYFWMSVIALGVAFALYLAGKDTPATQLVVPFFKDVMPQLGLFYILLAYFVIVGTGNAVNLTDGLDGLAIMPTVFVAGGFALVAWATGNMNFASYLHIPYLRHAGELVIVCTAIVGAGLGFLWFNTYPAQVFMGDVGSLALGGALGIIAVLLRQEFLLVIMGGVFVVETLSVILQVGSFKLRGQRIFRMAPIHHHYELKGWPEPRVIVRFWIISLMLVLIGLATLKVR
fold change of barcode share [1]: 0.7116 ± 0.00083 | fold change of barcode share [2]: < 0.00671

B10: mraY I79A (protein)
chain: MLVWLAEHLVKYYSGFNVFSYLTFRAIVSLLTALFISLWMGPRMIAHLQKLSFGQVVRNDGPESHFSKRGTPTMGGIMALTAIVISVLLWAYPSNPYVWCVLVVLVGYGVIGFVDDYRKVVRKDTKGLIARWKYFWMSVIALGVAFALYLAGKDTPATQLVVPFFKDVMPQLGLFYILLAYFVIVGTGNAVNLTDGLDGLAIMPTVFVAGGFALVAWATGNMNFASYLHIPYLRHAGELVIVCTAIVGAGLGFLWFNTYPAQVFMGDVGSLALGGALGIIAVLLRQEFLLVIMGGVFVVETLSVILQVGSFKLRGQRIFRMAPIHHHYELKGWPEPRVIVRFWIISLMLVLIGLATLKVR
fold change of barcode share [1]: 0.32 ± 0.14 | fold change of barcode share [2]: < 0.00406

B11: mraY I79P (protein)
chain: MLVWLAEHLVKYYSGFNVFSYLTFRAIVSLLTALFISLWMGPRMIAHLQKLSFGQVVRNDGPESHFSKRGTPTMGGIMPLTAIVISVLLWAYPSNPYVWCVLVVLVGYGVIGFVDDYRKVVRKDTKGLIARWKYFWMSVIALGVAFALYLAGKDTPATQLVVPFFKDVMPQLGLFYILLAYFVIVGTGNAVNLTDGLDGLAIMPTVFVAGGFALVAWATGNMNFASYLHIPYLRHAGELVIVCTAIVGAGLGFLWFNTYPAQVFMGDVGSLALGGALGIIAVLLRQEFLLVIMGGVFVVETLSVILQVGSFKLRGQRIFRMAPIHHHYELKGWPEPRVIVRFWIISLMLVLIGLATLKVR
fold change of barcode share [1]: 0.269 ± 0.2 | fold change of barcode share [2]: < 0.00626

B12: mreB V39A (protein)
chain: MLKKFRGMFSNDLSIDLGTANTLIYVKGQGIVLNEPSVAAIRQDRAGSPKSVAAVGHDAKQMLGRTPGNIAAIRPMKDGVIADFFVTEKMLQHFIKQVHSNSFMRPSPRVLVCVPVGATQVERRAIRESAQGAGAREVFLIEEPMAAAIGAGLPVSEATGSMVVDIGGGTTEVAVISLNGVVYSSSVRIGGDRFDEAIINYVRRNYGSLIGEATAERIKHEIGSAYPGDEVREIEVRGRNLAEGVPRGFTLNSNEILEALQEPLTGIVSAVMVALEQCPPELASDISERGMVLTGGGALLRNLDRLLMEETGIPVVVAEDPLTCVARGGGKALEMIDMHGGDLFSEE
fold change of barcode share [1]: 0.151 ± 0.0027 | fold change of barcode share [2]: 0.477 ± 0.67

B13: mreB F85A (protein)
chain: MLKKFRGMFSNDLSIDLGTANTLIYVKGQGIVLNEPSVVAIRQDRAGSPKSVAAVGHDAKQMLGRTPGNIAAIRPMKDGVIADFAVTEKMLQHFIKQVHSNSFMRPSPRVLVCVPVGATQVERRAIRESAQGAGAREVFLIEEPMAAAIGAGLPVSEATGSMVVDIGGGTTEVAVISLNGVVYSSSVRIGGDRFDEAIINYVRRNYGSLIGEATAERIKHEIGSAYPGDEVREIEVRGRNLAEGVPRGFTLNSNEILEALQEPLTGIVSAVMVALEQCPPELASDISERGMVLTGGGALLRNLDRLLMEETGIPVVVAEDPLTCVARGGGKALEMIDMHGGDLFSEE
fold change of barcode share [1]: 0.26 ± 0.022 | fold change of barcode share [2]: < 0.0087
